In PubChem BioAssay AID1468 (National Center for Advancing Translational Sciences (NCATS), 2008):
Out of some 280,000 compounds screened, about 1,100 (0.39%) were called active. The shares of active, inactive and inconclusive entries below differ from those in the screen. The call rests on the fitted dose curve; in most records, active means well fitted inhibition curve with a large enough effect; inconclusive means small, poorly fitted or top-dose-only effect, or effect the other way; inactive means flat fitted curve, though single readings scatter. Where the call is inconclusive, the potency comes from a doubtful curve fit.

Each molecule was assayed against Microtubule-associated protein tau (Homo sapiens) (UniProt P10636) (assay: qHTS for Inhibitors of Tau Fibril Formation, Fluorescence Polarization). Settings: K18 P301L tau heparin fibrillization, Alexa594 FP, 6 h; series mostly up to 57.7 µM.
Sequence of UniProt P10636 (P10636 whole entry, looked up): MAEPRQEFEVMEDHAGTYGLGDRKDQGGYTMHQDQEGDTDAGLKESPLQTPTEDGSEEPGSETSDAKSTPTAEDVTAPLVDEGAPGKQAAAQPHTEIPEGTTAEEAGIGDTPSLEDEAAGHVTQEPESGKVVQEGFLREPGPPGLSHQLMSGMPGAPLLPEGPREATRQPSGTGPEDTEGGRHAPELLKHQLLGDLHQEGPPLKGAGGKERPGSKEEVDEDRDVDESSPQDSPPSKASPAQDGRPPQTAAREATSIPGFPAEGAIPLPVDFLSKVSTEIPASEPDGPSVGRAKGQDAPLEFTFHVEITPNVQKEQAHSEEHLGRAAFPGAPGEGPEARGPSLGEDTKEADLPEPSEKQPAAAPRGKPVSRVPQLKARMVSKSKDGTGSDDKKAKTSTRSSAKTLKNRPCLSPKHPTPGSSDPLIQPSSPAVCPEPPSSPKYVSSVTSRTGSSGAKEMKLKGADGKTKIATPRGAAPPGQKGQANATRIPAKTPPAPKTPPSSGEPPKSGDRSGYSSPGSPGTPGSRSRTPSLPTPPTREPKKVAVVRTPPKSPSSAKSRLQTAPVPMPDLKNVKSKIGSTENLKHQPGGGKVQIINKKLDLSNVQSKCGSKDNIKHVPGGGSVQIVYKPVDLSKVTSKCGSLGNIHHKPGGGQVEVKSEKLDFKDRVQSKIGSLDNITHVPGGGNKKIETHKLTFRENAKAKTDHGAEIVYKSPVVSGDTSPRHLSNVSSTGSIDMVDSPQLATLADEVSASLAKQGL
Outline: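 Steps: dispense K18 P301L tau (15 uM plus 0.24 uM Alexa 594 tracer, final) in pH 7 sodium acetate; add compound; add heparin (20 uM final); incubate 6 hr, 37 C; add ThT (30 uM final); after 1 hr ambient, read FP.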
Further: nearly all actives have a fitted effect of over 55% in size.
Potency means the concentration at half of the fitted maximal effect; tags describe the fitted curve by direction and shape.

Potency, inactive:
COCc1cc(C)nc(SCC(=O)c2ccc(O)c(O)c2)c1C#N
COC(=O)c1oc2ccc(OC)cc2c1N
COc1cccc(C(c2nnnn2Cc2ccccc2)N2CCN(C(=O)c3ccco3)CC2)c1OC (centres undefined)
COC(=O)[C@@]1(Cc2ccc(F)cc2)[C@H]2c3cc(C(=O)N(C)C)n(Cc4cccc5ccccc45)c3C[C@H]2CN1C(=O)c1ccccc1
COc1ccccc1CNC(=O)CCc1c(C)nc2c(c(C)nn2-c2ccc(C)c(C)c2)c1C
Cc1ccc(-c2nc(CN(CC3CCC3)CC3CCCO3)c(C)o2)s1 (centres undefined)
CC(C)Oc1ccc(CNS(=O)(=O)c2ccc3c(c2)C(C)(C)C(=O)N3C)cc1
CCn1c(C)cc(/C=C2/SC(=O)N(C(C)C(=O)OC)C2=O)c1C (centres undefined)
COc1ccc(CNC(=O)CCC2N=C3c4ccccc4N=C(SCc4cccc(F)c4)N3C2=O)cc1 (centres undefined)
CCCCCn1c(CN2CCN(C(=O)c3ccco3)CC2)nc2c1c(=O)n(C)c(=O)n2C
COC(=O)[C@@]1(Cc2ccc(F)cc2)[C@H]2c3cc(C(=O)N4CCCC4)n(Cc4ccccn4)c3C[C@H]2CN1C(=O)c1ccccc1
O=C(Nc1cccnc1)c1ccc(Oc2ccccc2)cc1
CCN(CC)C(=O)c1cccc2c1C(=O)c1ccccc1-2
COCCOC(=O)C1=C(C)OC(N)=C(C#N)C1c1ccc2c(c1)OCO2 (centres undefined)
COc1cccc(-c2cc(C(=O)N3CCCCC3C)no2)c1 (centres undefined)
CN(C)S(=O)(=O)n1cnc(-c2ccccc2)c1-c1ccccc1
CCCn1c2ccccc2c2cnn(CC(=O)N3CCN(c4ccccc4F)CC3)c(=O)c21

Potency, inconclusive:
N#Cc1cccc(Nc2ncnc3c2cnn3-c2cccc(Cl)c2)c1 10 µM [inhibitor, partial curve]
Cc1nn(C)c(C)c1NC(=O)c1ccc(Br)o1 1.41 µM [inhibitor, full curve]
CC1(OC(=O)c2cccs2)C(=O)C=C2C=C(c3ccc(C#N)cc3)OC=C2C1=O (centres undefined) 35.5 µM [inhibitor, single point]
COc1ccc(C(CC(=O)N2CCCC(C)C2)c2c(OC)cc(OC)c3ccc(=O)oc23)cc1 (centres undefined) 2.24 µM [inhibitor, single point]
CCC(CC)C(=O)Nc1cccc(C(=O)Nc2ccc(S(=O)(=O)Nc3ccc(C)cc3)cc2)c1 28.2 µM [inhibitor, single point]
COc1cc2c(cc1NC(=S)Nc1cccc(C(F)(F)F)c1)oc1ccccc12 39.8 µM [inhibitor, single point]
COc1cccc(-c2nc(NCCN3CCOCC3)c3ccccc3n2)c1O 0.891 µM [activator, partial curve, poor fit]
Cc1ccc(C)c(OCCn2cc(C(=O)c3cccs3)c3ccccc32)c1 31.6 µM [inhibitor, single point]
COc1ccc(-c2csc(Nc3ccc(S(N)(=O)=O)cc3)n2)cc1 17.8 µM [activator, single point]
O=C1NNC(c2ccccc2)=N/C1=C\c1ccccc1Cl 15.8 µM [inhibitor, partial curve]
COC(=O)c1cc(NC(=O)C2CCCN(S(=O)(=O)c3c(C)n[nH]c3C)C2)cc(C(=O)OC)c1 (centres undefined) 10 µM [inhibitor, partial curve]
COc1cc(S(=O)(=O)N(C)C)ccc1Br 44.7 µM [inhibitor, single point]
Cc1ccc2nc(SC(C(=O)Nc3ccc(F)cc3)c3ccccc3)[nH]c2c1 (centres undefined) 10 µM [inhibitor, partial curve]
COc1ccc(NC(=O)CN(C)S(=O)(=O)c2ccc3c(c2)CCC(=O)N3)c(OC)c1 0.178 µM [inhibitor, full curve, poor fit]
CCOC(=O)/C(C#N)=C\C1=C(N2CCCC2)CC(C)(C)OC1 8.91 µM [inhibitor, partial curve]
CCCCCOC(=O)c1ccc(NC(=O)c2ccco2)cc1 39.8 µM [inhibitor, single point]
COc1ccc(NC(=O)c2ccc3c(c2)C(=O)N(Cc2cccnc2)C3=O)c(OC)c1 3.16 µM [inhibitor, full curve]
CC1(C)Cc2c(c(N3CCOCC3)nc3snc(N)c23)CO1 12.6 µM [inhibitor, partial curve]
COC(=O)Cc1cc(=O)n2[nH]c(SC)nc2n1 20 µM [inhibitor, single point]
COc1cc(/C=N/NC(=O)c2ccncc2)ccc1OC(=O)c1ccccc1Cl 25.1 µM [inhibitor, single point]
CCNc1ccc(-c2nc(-c3ccccn3)no2)cc1[N+](=O)[O-] 31.6 µM [inhibitor, single point]
Cc1cc(NC(=O)COCc2cc(-c3ccc(F)cc3)on2)ccc1Br 3.55 µM [inhibitor, partial curve, poor fit]
CC(C)Oc1cccc(C(=O)Nc2ccc3oc(-c4cccc(Cl)c4)nc3c2)c1 12.6 µM [inhibitor, partial curve]
Cc1ccc(Nc2c(-c3ccc(Cl)cc3)nc3sccn23)c(C)c1 8.91 µM [activator, partial curve]
O=c1ccc2cc(S(=O)(=O)NCc3ccc(Br)cc3)ccc2[nH]1 5.01 µM [inhibitor, single point]
Cc1ccc(CNc2ncc(-c3ccccc3)n2C)o1 4.47 µM [inhibitor, single point]
CON(C)S(=O)(=O)c1ccc2c(c1)NC(=O)C1CCCN21 (centres undefined) 39.8 µM [inhibitor, single point]
